This note sets out measurements from the supplement of paper PMC9174493.

The list shows a part of the results. Single values of this set are uncertain. Values with irradiation are relative to irradiated vehicle.
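Note: viability correction based on the alamar blue assay, with concentrations leaving 10% survival or less dropped.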

One assay relates to A549-Dual. Put plainly: NF-kB reporter (SEAP) activity, viability-corrected, relative to vehicle (fold change vs vehicle); higher = more activation of STING-IRF / NF-kB immune response reporter. The conditions noted are these: 10 µM; irradiation: 8 Gy/4 fr.
The compound `CCN(C)C(=O)Oc1cccc(C(C)N(C)C)c1.O=C(O)C(O)C(O)C(=O)O` (configuration not stated) [Rivastigmine Tartrate] registered an NF-kB reporter of 0.559.

Compound `Cc1cccc(C(C)c2cnc[nH]2)c1C.Cl` (configuration not stated) [Dexmedetomidine HCl] registered an NF-kB reporter of 0.522.

Regarding `CC(=O)OCC1=C(C(=O)O)N2C(=O)C(N)C2SC1` (configuration not stated) [7-Aminocephalosporanic acid], the NF-kB reporter was 1.03.

`Cc1cccc(Cc2c[nH]cn2)c1C.Cl` [Detomidine HCl]: the NF-kB reporter was 0.676.

Take `CCC1(c2cccc(O)c2)CCCCN(C)C1.Cl` (configuration not stated) [Meptazinol HCl]: the NF-kB reporter came to 0.842.

Turning to `COc1ccc(C(CN(C)C)C2(O)CCCCC2)cc1` (configuration not stated) [Venlafaxine], the NF-kB reporter is 0.806.

On to `NCC(CC(=O)O)c1ccc(Cl)cc1` [(R)-baclofen], for which the NF-kB reporter was found to be 0.618.

In turn, `CC[N+](C)(CC)CCOC(=O)C(O)(c1ccccc1)c1ccccc1.[Br-]` [Methylbenactyzine Bromide] showed an NF-kB reporter of 0.596.

The compound `Br.CN1C2CC(OC(=O)C(CO)c3ccccc3)CC1C1OC12` (configuration not stated) [Scopolamine HBr] had an NF-kB reporter of 0.749.

`Cl.N=C(N)NN` [Aminoguanidine hydrochloride] had an NF-kB reporter of 0.73.

On to `CN1C2CCC1CC(OC(=O)C(CO)c1ccccc1)C2.CN1C2CCC1CC(OC(=O)C(CO)c1ccccc1)C2.O.O=S(=O)(O)O` (configuration not stated) [Atropine sulfate monohydrate], for which the NF-kB reporter came out at 0.796.

Regarding `CCC12C=CCN3CCC4(c5ccc(OC)cc5N(C)C4C(O)(C(=O)OC)C1OC(C)=O)C32` (configuration not stated) [Vindoline], the NF-kB reporter amounted to 0.768.

Turning to `CCCCCN(C)CCC(O)(P(=O)([O-])O)P(=O)(O)O.[Na+]` [ibandronic acid], the NF-kB reporter came out at 0.899.

In the case of `CCC(COC(=O)c1cc(OC)c(OC)c(OC)c1)(c1ccccc1)N(C)C` (configuration not stated) [Trimebutine], the NF-kB reporter stood at 0.735.

In turn, `C[N+]12CCC(CC1)C(OC(=O)C(O)(c1ccccc1)c1ccccc1)C2.[Br-]` (configuration not stated) [Clidinium Bromide] showed an NF-kB reporter of 0.897.

For the compound `CC1OC(OC2C(O)C(O)C(O)C(O)C2O)C(N)CC1NC(=N)C(=O)O.Cl` (configuration not stated) [Kasugamycin hydrochloride], the NF-kB reporter was found to be 0.705.

The compound `O=[N+]([O-])C(Br)(CO)CO` [Bronopol] came in with an NF-kB reporter of 1.01.

As to `Nc1nc(N)nc(NC2CC2)n1` [Cyromazine], the NF-kB reporter was 0.892.

For the compound `NCCc1ccc(O)cc1` [Tyramine], the NF-kB reporter was 0.461.

The compound `CCOC(=O)Nc1ccc(NCc2ccc(F)cc2)cc1N.Cl.Cl` [Retigabine 2HCl] had an NF-kB reporter of 0.719.

`C=CCN1CCC23c4c5ccc(O)c4OC2C(=O)CCC3(O)C1C5.Cl` (configuration not stated) [Naloxone HCl] returned an NF-kB reporter of 0.756.

In turn, `CC(=O)c1c([O-])cc(C)oc1=O.[Na+]` [Sodium dehydroacetate] yielded an NF-kB reporter of 0.818.

In turn, `O=c1ccc2ccc3occc3c2o1` [Isopsoralen] displayed an NF-kB reporter of 0.642.

`Oc1ccc(Cl)cc1Cc1cc(Cl)ccc1O` [Dichlorophene] showed an NF-kB reporter of 0.289.

For the compound `C#CC1(OC(=O)CCCCCC)CCC2C3CCC4=CC(=O)CCC4C3CCC21C` (configuration not stated) [Norethisterone Enanthate], the NF-kB reporter was found to be 0.332.

Still in this assay, the particulars now being: 10 µM; irradiation: none.
For the compound `CC(Cc1ccc(O)cc1)NCC(O)c1cc(O)cc(O)c1` (configuration not stated) [Fenoterol], the NF-kB reporter stood at 1.06.

For `CNCC(=O)c1ccc(O)c(O)c1.Cl` [Adrenalone HCl], the NF-kB reporter is 1.22.

Regarding `CN1c2ccccc2C(NCCCCCCC(=O)[O-])c2ccc(Cl)cc2S1(=O)=O.[Na+]` (configuration not stated) [Tianeptine sodium], the NF-kB reporter was 0.773.

`CCCC[N+]1(C)C2CC(OC(=O)C(CO)c3ccccc3)CC1C1OC12.[Br-]` (configuration not stated) [Butylscopolamine Bromide] had an NF-kB reporter of 1.28.

For the compound `COc1ccc(OC)c(C(O)C(C)N)c1.Cl` (configuration not stated) [Methoxamine HCl], the NF-kB reporter came out at 0.611.

Compound `COC12CC(COC(=O)c3cncc(Br)c3)CN(C)C1Cc1cn(C)c3cccc2c13` (configuration not stated) [Nicergoline] showed an NF-kB reporter of 0.611.

The compound `O=c1[nH]c2ccccc2n1C1CCN(CCCC(c2ccc(F)cc2)c2ccc(F)cc2)CC1` [Pimozide] had an NF-kB reporter of 0.82.

In turn, `CC(C)CC1C(=O)N2CCCC2C2(O)OC(NC(=O)C3C=C4c5cccc6[nH]c(Br)c(c56)CC4N(C)C3)(C(C)C)C(=O)N12.CS(=O)(=O)O` (configuration not stated) [Bromocriptine Mesylate] had an NF-kB reporter of 1.16.

For `COc1ccc2[nH]cc(CCN)c2c1` [5-Methoxytryptamine], the NF-kB reporter came out at 1.07.

Consider `CCC1(C)CC(=O)NC(=O)C1` [Bemegride], for which the NF-kB reporter stood at 1.19.

`COc1cccc2c1cc([N+](=O)[O-])c1c(C(=O)O)cc3c(c12)OCO3` [Aristolochic acid A] gave an NF-kB reporter of 0.637.

In turn, `CCCN1CC(CSC)CC2c3cccc4[nH]cc(c34)CC21.CS(=O)(=O)O` (configuration not stated) [Pergolide Mesylate] showed an NF-kB reporter of 0.772.

As to `CCN(C)C(=O)Oc1cccc(C(C)N(C)C)c1.O=C(O)C(O)C(O)C(=O)O` (configuration not stated) [Rivastigmine Tartrate], the NF-kB reporter came out at 0.553.

On to `Cc1cccc(C(C)c2cnc[nH]2)c1C.Cl` (configuration not stated) [Dexmedetomidine HCl], for which the NF-kB reporter worked out at 0.821.

In turn, `CC(=O)OCC1=C(C(=O)O)N2C(=O)C(N)C2SC1` (configuration not stated) [7-Aminocephalosporanic acid] registered an NF-kB reporter of 1.12.

For the compound `Cc1cccc(Cc2c[nH]cn2)c1C.Cl` [Detomidine HCl], the NF-kB reporter is 1.05.

`CCC1(c2cccc(O)c2)CCCCN(C)C1.Cl` (configuration not stated) [Meptazinol HCl] returned an NF-kB reporter of 0.928.

As to `COc1ccc(C(CN(C)C)C2(O)CCCCC2)cc1` (configuration not stated) [Venlafaxine], the NF-kB reporter stood at 1.33.

Compound `NCC(CC(=O)O)c1ccc(Cl)cc1` [(R)-baclofen] showed an NF-kB reporter of 1.05.

`CC[N+](C)(CC)CCOC(=O)C(O)(c1ccccc1)c1ccccc1.[Br-]` [Methylbenactyzine Bromide] came in with an NF-kB reporter of 0.781.

Turning to `Br.CN1C2CC(OC(=O)C(CO)c3ccccc3)CC1C1OC12` (configuration not stated) [Scopolamine HBr], the NF-kB reporter was 1.19.

`Cl.N=C(N)NN` [Aminoguanidine hydrochloride]: the NF-kB reporter was 0.727.

Consider `CN1C2CCC1CC(OC(=O)C(CO)c1ccccc1)C2.CN1C2CCC1CC(OC(=O)C(CO)c1ccccc1)C2.O.O=S(=O)(O)O` (configuration not stated) [Atropine sulfate monohydrate], for which the NF-kB reporter amounted to 1.3.

With `CCC12C=CCN3CCC4(c5ccc(OC)cc5N(C)C4C(O)(C(=O)OC)C1OC(C)=O)C32` (configuration not stated) [Vindoline], the NF-kB reporter was 0.713.

In turn, `CCCCCN(C)CCC(O)(P(=O)([O-])O)P(=O)(O)O.[Na+]` [ibandronic acid] returned an NF-kB reporter of 0.881.

Take `CCC(COC(=O)c1cc(OC)c(OC)c(OC)c1)(c1ccccc1)N(C)C` (configuration not stated) [Trimebutine]: the NF-kB reporter worked out at 0.922.

For the compound `C[N+]12CCC(CC1)C(OC(=O)C(O)(c1ccccc1)c1ccccc1)C2.[Br-]` (configuration not stated) [Clidinium Bromide], the NF-kB reporter amounted to 1.44.

`CC1OC(OC2C(O)C(O)C(O)C(O)C2O)C(N)CC1NC(=N)C(=O)O.Cl` (configuration not stated) [Kasugamycin hydrochloride] returned an NF-kB reporter of 0.803.

As for `O=[N+]([O-])C(Br)(CO)CO` [Bronopol], the NF-kB reporter is 0.972.

`Nc1nc(N)nc(NC2CC2)n1` [Cyromazine] registered an NF-kB reporter of 1.02.

With `NCCc1ccc(O)cc1` [Tyramine], the NF-kB reporter worked out at 0.713.

With `CCOC(=O)Nc1ccc(NCc2ccc(F)cc2)cc1N.Cl.Cl` [Retigabine 2HCl], the NF-kB reporter is 0.527.

As for `C=CCN1CCC23c4c5ccc(O)c4OC2C(=O)CCC3(O)C1C5.Cl` (configuration not stated) [Naloxone HCl], the NF-kB reporter came out at 0.911.

`CC(=O)c1c([O-])cc(C)oc1=O.[Na+]` [Sodium dehydroacetate] displayed an NF-kB reporter of 1.1.

For `O=c1ccc2ccc3occc3c2o1` [Isopsoralen], the NF-kB reporter came to 0.631.

Compound `Oc1ccc(Cl)cc1Cc1cc(Cl)ccc1O` [Dichlorophene] showed an NF-kB reporter of 0.364.

The compound `C#CC1(OC(=O)CCCCCC)CCC2C3CCC4=CC(=O)CCC4C3CCC21C` (configuration not stated) [Norethisterone Enanthate] returned an NF-kB reporter of 0.714.
